Whole data set: some 110,000 compounds, median “z-score” near -0.1, cut for the highest 2% near 2. Some of the results follow.
target: Metabotropic glutamate receptor 8 (Rattus norvegicus) (UniProt P70579); experiment: mGluR8 Gi/Go-coupled signaling modulation – cell-based, rat, thallium flux, HTS, primary screen (AID 488969); settings: HEK293 rat mGluR8, GIRK (G protein-gated inwardly rectifying potassium channel) thallium flux, FluoZin2; at 10 µM; stronger effect = higher value; submaximal glutamate (EC20) added with thallium
Chain of UniProt P70579 (P70579 whole entry, looked up): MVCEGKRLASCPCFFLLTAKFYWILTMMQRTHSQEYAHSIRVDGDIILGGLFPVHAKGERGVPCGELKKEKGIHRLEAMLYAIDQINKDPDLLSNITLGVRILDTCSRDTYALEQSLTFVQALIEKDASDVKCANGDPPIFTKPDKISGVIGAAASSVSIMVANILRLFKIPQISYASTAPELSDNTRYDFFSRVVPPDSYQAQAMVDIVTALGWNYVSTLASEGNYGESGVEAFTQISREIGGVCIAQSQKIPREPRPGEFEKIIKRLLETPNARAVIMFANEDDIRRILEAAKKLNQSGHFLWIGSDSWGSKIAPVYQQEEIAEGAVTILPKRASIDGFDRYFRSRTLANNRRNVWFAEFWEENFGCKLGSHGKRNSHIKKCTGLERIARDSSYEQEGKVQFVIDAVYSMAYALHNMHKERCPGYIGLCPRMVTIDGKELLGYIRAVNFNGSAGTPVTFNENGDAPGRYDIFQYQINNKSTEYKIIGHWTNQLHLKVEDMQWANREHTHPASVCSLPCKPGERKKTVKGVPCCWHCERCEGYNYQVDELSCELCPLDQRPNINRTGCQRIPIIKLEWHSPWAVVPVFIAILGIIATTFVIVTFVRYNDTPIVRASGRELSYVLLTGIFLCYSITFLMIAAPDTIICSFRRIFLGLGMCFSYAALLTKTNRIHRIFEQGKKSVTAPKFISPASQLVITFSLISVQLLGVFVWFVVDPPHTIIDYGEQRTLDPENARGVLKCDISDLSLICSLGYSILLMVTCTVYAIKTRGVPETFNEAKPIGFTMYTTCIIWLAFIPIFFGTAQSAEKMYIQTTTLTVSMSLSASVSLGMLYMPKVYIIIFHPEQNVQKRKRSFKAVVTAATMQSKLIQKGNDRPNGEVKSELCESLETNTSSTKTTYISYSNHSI

**Q.** `COc1ccc(CCNCCC(=O)Nc2c(C)cc(C)cc2C)cc1OC` was tested. Which z-score did it give?
**A.** Its z-score is -0.384.

**Q.** Which z-score does the source give for `COc1ccc(C)cc1S(=O)(=O)N1CCC(C(=O)N2CCOCC2)CC1` here?
**A.** The z-score was 0.353.

**Q.** For `Cc1ccc(Cc2nnc3n(-c4ccccc4)nc(C(=O)c4ccccc4)n3c2=O)cc1`, which z-score is on record?
**A.** Its z-score is 0.0848.

**Q.** For `Cc1ncc([N+](=O)[O-])n1CCOC(=O)Nc1ccc([N+](=O)[O-])cc1`, which z-score is on record?
**A.** The z-score was 0.0381.

**Q.** With `Cc1ccc(S(=O)(=O)/N=C2\SC(CC(=O)Nc3ccc(F)cc3)C(=O)N2c2ccccc2)cc1` (configuration not stated) as the compound, how does the z-score read?
**A.** Its z-score is -0.0863.

**Q.** How did the z-score turn out when `CCCCCCC(=O)Nc1nc(C)c(-c2csc(Nc3cc(Cl)ccc3OC)n2)s1` was run?
**A.** Its z-score is -0.23.

**Q.** How did the z-score turn out when `Cc1nc(NC(=O)c2cc3c(C)nn(-c4ccccc4)c3s2)sc1C(=O)Nc1ccccc1` was run?
**A.** Its z-score is -0.0609.

**Q.** Which z-score does the source give for `Cc1[nH]nc2c1C1(C(=O)Nc3ccc([N+](=O)[O-])cc31)C(C#N)=C(N)O2` (configuration not stated) here?
**A.** The z-score was -0.327.

**Q.** Which z-score does the source give for `O=C(CCn1nc(-c2ccc(Cl)cc2)ccc1=O)N1CCN(c2ccccn2)CC1` here?
**A.** Its z-score is 0.0631.

**Q.** With `CC(OC(=O)C1CCN(S(=O)(=O)c2ccc(Cl)cc2)CC1)C(=O)N1CCc2ccccc21` (configuration not stated) as the compound, how does the z-score read?
**A.** Its z-score is -0.126.

**Q.** For `CC(C)(C)Nc1nc(OCC(F)(F)F)nc(OCC(F)(F)F)n1`, which z-score is on record?
**A.** The z-score was -0.268.

**Q.** For `CC(C)CCn1c(=O)c2ccccc2n2c(CN(C)Cc3ccccc3)nnc12`, which z-score is on record?
**A.** Its z-score is 0.222.

**Q.** Which z-score does the source give for `O=C(c1ccccc1[N+](=O)[O-])N1CCC(Cc2ccccc2)CC1` here?
**A.** The z-score was -0.0322.

**Q.** For `CC(C)CC(c1nnnn1C(C)C)N1CCN(c2ccccc2)CC1` (configuration not stated), which z-score is on record?
**A.** Its z-score is 0.0668.

**Q.** `CC(C)CCNC(=O)CCCOc1cc(=O)n(C)c2ccccc12` was tested. Which z-score did it give?
**A.** The z-score was -0.0449.

**Q.** With `Cn1cnnc1SCC(=O)Nc1cc(S(=O)(=O)N2CCCCCC2)ccc1Cl` as the compound, how does the z-score read?
**A.** The z-score was -0.301.

**Q.** Which z-score does the source give for `Cn1c(N2CCOCC2)c(/C=N/OC(=O)c2ccc(F)cc2)c2ccccc21` here?
**A.** The z-score was -0.268.

**Q.** Which z-score does the source give for `CCn1c(=O)cc(SCC(=O)N2CCN(C3CCCCC3)CC2)c2ccccc21` here?
**A.** The z-score was -0.174.

**Q.** `CCSc1ccccc1C(=O)n1nnc2ccccc21` was tested. Which z-score did it give?
**A.** Its z-score is -1.25.

**Q.** `CCOC(=O)CSc1nnc(-c2nnc(SCC(=O)OCC)n2CC)n1CC` was tested. Which z-score did it give?
**A.** The z-score was -0.379.

**Q.** Which z-score does the source give for `COc1ccc(CCn2c(=O)[nH]c3cc(C(=O)NCCN4CCOCC4)ccc3c2=O)cc1OC` here?
**A.** The z-score was 0.716.

**Q.** With `NC(=O)c1cnn2c(C(F)(F)F)cc(-c3ccccc3)nc12` as the compound, how does the z-score read?
**A.** The z-score was -0.118.

**Q.** How did the z-score turn out when `CC(C)NC(=O)c1ccccc1NC(=O)CCc1ccccc1` was run?
**A.** Its z-score is -0.0539.

**Q.** For `CC(=O)N(CCCN1CCOCC1)Cc1ccncc1`, which z-score is on record?
**A.** Its z-score is -0.261.

**Q.** For `Cc1nc(C)c(-c2csc(NCc3ccccc3)n2)s1`, which z-score is on record?
**A.** Its z-score is -0.34.

**Q.** Which z-score does the source give for `CN(Cc1ccccc1F)c1nc(-c2cccs2)nc2ccccc12` here?
**A.** Its z-score is 0.11.

**Q.** `COc1nc(NCCc2ccc(OC)c(OC)c2)nc(OC)n1` was tested. Which z-score did it give?
**A.** Its z-score is -0.163.

**Q.** How did the z-score turn out when `COCCNC(=O)Cn1c(=O)n(Cc2ccco2)c(=O)c2ccccc21` was run?
**A.** The z-score was -0.358.

**Q.** How did the z-score turn out when `CCC(=O)Nc1ccc(N2CCCCC2)cc1` was run?
**A.** Its z-score is -0.169.

**Q.** For `COc1cccc(-n2c(SCC(=O)Nc3ccc4c(c3)CCC4)nc3ccccc3c2=O)c1`, which z-score is on record?
**A.** Its z-score is -0.242.

**Q.** How did the z-score turn out when `O=C(COC(=O)C1=Cc2ccccc2OC1)NC1CCCC1` was run?
**A.** The z-score was -0.184.

**Q.** For `C=CCn1c(SCC(=O)c2ccc(Br)cc2)nnc1C(C)NC(=O)Cc1ccc(OC)cc1` (configuration not stated), which z-score is on record?
**A.** Its z-score is -0.194.

**Q.** `CN(C)CCN(C)Cc1ccccc1Sc1cccc2ccccc12` was tested. Which z-score did it give?
**A.** Its z-score is 0.946.

**Q.** With `COc1cc(C=O)ccc1OCCOCCOc1ccc(Cl)cc1Cl` as the compound, how does the z-score read?
**A.** The z-score was -0.324.

**Q.** For `Cc1ccccc1C(=O)c1ccc2c(c1)n(C)c(=O)n2C`, which z-score is on record?
**A.** Its z-score is 0.329.

**Q.** `O=C(CN1C(=O)c2cccc3cccc(c23)C1=O)N1CCN(Cc2ccc3c(c2)OCO3)CC1` was tested. Which z-score did it give?
**A.** The z-score was 0.769.

**Q.** With `CC(=O)NC1=C(NC2CCS(=O)(=O)C2)C(=O)c2ccccc2C1=O` (configuration not stated) as the compound, how does the z-score read?
**A.** Its z-score is 0.236.

**Q.** With `O=C(Nc1ccc2c(c1)OCCO2)c1cc(-n2cnnc2)ccc1Cl` as the compound, how does the z-score read?
**A.** The z-score was 0.0457.

**Q.** Which z-score does the source give for `CC(C)OCCCNC(=O)CCSc1ccc(Cl)cc1` here?
**A.** Its z-score is -0.502.

**Q.** How did the z-score turn out when `COc1ccc(-n2c(CNc3ccc(C)cc3)nnc2SCc2ccccc2)cc1` was run?
**A.** Its z-score is -0.47.

**Q.** Which z-score does the source give for `Cc1cc(C)c(S(=O)(=O)n2c([N+](=O)[O-])cnc2C)cc1C` here?
**A.** The z-score was 0.127.

**Q.** Which z-score does the source give for `O=C(Nc1cccc(NC(=O)C2CC2)n1)C1CC1` here?
**A.** Its z-score is -0.152.

**Q.** `CN(C)c1nc(-c2ccccc2)nc(-c2ccc(Cl)cc2)c1C#N` was tested. Which z-score did it give?
**A.** The z-score was 0.0496.

**Q.** How did the z-score turn out when `COc1ccc(NC(=O)CSc2ncnc3c2cnn3Cc2ccccc2)cc1` was run?
**A.** The z-score was -0.237.

**Q.** How did the z-score turn out when `COc1ccc(S(=O)(=O)Nc2cccc(NC(C)=O)c2)cc1` was run?
**A.** Its z-score is 0.142.

**Q.** `Cc1cccc(N2Cc3ccccc3C2=NC(=O)c2ccc(Cl)nc2)c1` was tested. Which z-score did it give?
**A.** The z-score was 0.324.

**Q.** With `COc1cc(-c2cc(C(=O)Nc3ccc(S(=O)(=O)NCc4ccco4)cc3)c3ccccc3n2)cc(OC)c1OC` as the compound, how does the z-score read?
**A.** Its z-score is -0.615.

**Q.** How did the z-score turn out when `Cc1ccc(S(=O)(=O)N(CC(=O)N2CCC(C)CC2)Cc2ccccc2F)cc1` was run?
**A.** The z-score was 1.38.

**Q.** How did the z-score turn out when `COc1ccc(NC(=O)CSc2nc3c(c(=O)n2-c2ccc(F)cc2)SCC3)c(OC)c1` was run?
**A.** The z-score was -0.389.

**Q.** How did the z-score turn out when `COc1ccc(NC(=O)CN2CCN(CC(=O)Nc3ccccc3Cl)CC2)cc1` was run?
**A.** The z-score was -0.12.

**Q.** How did the z-score turn out when `O=C(Nc1ccc(S(=O)(=O)C(F)F)cc1)c1cccc(S(=O)(=O)N2CCOCC2)c1` was run?
**A.** Its z-score is 0.0646.

**Q.** For `O=C(Cn1cc([N+](=O)[O-])cn1)Nc1ccccn1`, which z-score is on record?
**A.** Its z-score is -0.403.

**Q.** For `CC1=C(C#N)C(c2ccc(O)cc2)C2=C(CC(C)(C)CC2=O)N1` (configuration not stated), which z-score is on record?
**A.** Its z-score is 0.166.

**Q.** How did the z-score turn out when `O=C(c1ccccc1NS(=O)(=O)c1ccc(F)cc1)N1CCCC1` was run?
**A.** Its z-score is -0.104.

**Q.** `Cc1cc(=O)[nH]c2c1c(C)nn2C1CCOC(C)(C)C1` (configuration not stated) was tested. Which z-score did it give?
**A.** Its z-score is 0.191.

**Q.** `Cc1ccc(S(=O)(=O)NCCSC(C)(C)C)cc1` was tested. Which z-score did it give?
**A.** The z-score was -0.0832.

**Q.** With `CCOP(=O)(c1ccccc1)c1nc(-c2ccc(F)cc2)oc1N1CCCCC1` (configuration not stated) as the compound, how does the z-score read?
**A.** Its z-score is -1.63.

**Q.** With `COc1ccc(-c2noc(C(C)n3nc(C)c([N+](=O)[O-])c3C)n2)cc1OC` (configuration not stated) as the compound, how does the z-score read?
**A.** Its z-score is -0.0624.

**Q.** How did the z-score turn out when `O=C(N/C(=C/c1ccc2c(c1)OCO2)C(=O)N1CCOCC1)c1cccs1` was run?
**A.** Its z-score is -0.358.

**Q.** Which z-score does the source give for `COc1cc(NC(=O)C2CCCN(S(=O)(=O)c3ccc4c(c3)oc(=O)n4C)C2)cc(OC)c1` (configuration not stated) here?
**A.** The z-score was 0.205.

**Q.** With `COc1ccc(S(=O)(=O)N(CC(=O)Nc2cccnc2)c2ccccc2OC)cc1` as the compound, how does the z-score read?
**A.** The z-score was -0.332.

**Q.** How did the z-score turn out when `COC(=O)N/N=C/c1cc(Cl)cc(Cl)c1OCc1ccccc1F` was run?
**A.** Its z-score is 0.623.

**Q.** With `O=C(Nc1ccccc1)C(=O)c1cn(CC(=O)N2CCCCC2)c2ccccc12` as the compound, how does the z-score read?
**A.** Its z-score is 0.00497.

**Q.** For `Cc1c(C(=O)N2CCN(c3ccccc3)CC2)sc2ncnc(N3CCN(c4ccccc4)CC3)c12`, which z-score is on record?
**A.** Its z-score is -0.123.

**Q.** `COc1ccc(NC(=O)c2ccc(-n3nc(C)cc3C)cc2)cc1OC` was tested. Which z-score did it give?
**A.** The z-score was -0.503.

**Q.** With `COc1ccc(-c2onc(C)c2-c2ccccc2)c(O)c1` as the compound, how does the z-score read?
**A.** Its z-score is -0.108.

**Q.** How did the z-score turn out when `CC(C)C12CN3CC(C(C)C)(CN(C1)C3c1ccco1)C2=O` (configuration not stated) was run?
**A.** Its z-score is 0.719.
